For six molecules, binding signal results are on record in publication PMC12136788.

The other results are listed elsewhere or left out.

T1: UNK ZnF1-3 (human, UniProt Q9C0B0 31-174)
T1 sequence: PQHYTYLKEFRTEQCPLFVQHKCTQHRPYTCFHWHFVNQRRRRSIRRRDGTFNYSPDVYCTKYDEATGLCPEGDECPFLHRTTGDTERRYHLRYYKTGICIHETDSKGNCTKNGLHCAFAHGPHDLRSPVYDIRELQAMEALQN

B1: 153482016_153483098_2329_CDS_ENSG00000157827_ENST00000288670|human|control|control (ssRNA)
RNA: GGGAGUUCUACAGUCCGACGAUCAAUGGCAGGUCCUUGGGCUUUUGUCUUGAAUAUUUCCUCAAAUUCAUCCACAUUUAAAUCCUCCAGAAUUCGCUCAUCAUCAAUUUCAUUGAAGACUGUGCCAUUGAUCUGAUUGGGCUUCAACAGAGGAUUGAGCAUCA
B2: chr17:27613171:27613172:-_ENSG00000108256_ENST00000225388|hu_mus|FALSE|FALSE (ssRNA)
RNA: GGGAGUUCUACAGUCCGACGAUCCGUAGGAGAGGCCAGGGGAUUUUGAUUUUCUAUUUCGUAGUCCUUUGAGAGAAACACUAAAGCACCUUGACUACUGGUGUCUGCUUUUUGCAGGUCACCUAUAUGACUGGGGUCCAAGGACAACAGAGGAUUGAGCAUCA
B3: chr14:76906579:76906580:+_ENSMUSG00000022010_ENSMUST00000022587|mus_mus|FALSE|FALSE (ssRNA)
RNA: GGGAGUUCUACAGUCCGACGAUCGGGGAGAAAGCGAGAACAGCGUGUGAGUCUCACGUCUCUUUCGUAGACAGCAAUGAAAUGGGUGACUGUGGAGGCGGCUUCUCUCUAGCACAUCUCUUCGGUCUGUUCAGUUCAGACAGCCAACAGAGGAUUGAGCAUCA
B4: chr4:141323876:141323877:-_ENSMUSG00000040697_ENSMUST00000038014|mus_mus|FALSE|FALSE (ssRNA)
RNA: GGGAGUUCUACAGUCCGACGAUCAGUCAGGUCAGGGAGCACAGCUUCUGAAGACAGAAAUGCUGGAUCCUUCCGCAGCUGGUCAAGAUAACCCAAAAGGACGAACUUAUCGCUCUCACUGCCGGUCCAGGGAUCCUCCAGGGUCAACAGAGGAUUGAGCAUCA
B5: chr2:25961539:25961540:-_ENSG00000143970_ENST00000336112|hu_hu|FALSE|FALSE (ssRNA)
RNA: GGGAGUUCUACAGUCCGACGAUCCACUCCUCACCCCCAUUAUAGCAAAUCACUUCACCAGAGAGUUAUUUAUGGCUCUCUAAGGUGGAGAAAGGCAAUAAUAAACAACAGAAUGUUAACUGUCAGGUCAUUAAUAUGUAUGACCAACAGAGGAUUGAGCAUCA
B6: chr3:9412954:9412955:+_ENSG00000134077_ENST00000452837|hu_mus|hu_hu_hu_mus_False|28_58 (ssRNA)
RNA: GGGAGUUCUACAGUCCGACGAUCGGUUGAUAUCUCUUCUUUGAUGGCUGGAUUUUCAUAAUAGUCCAAGAUAUGUGAAUCUAAAGCGCUGCUGGCAUGCUUUUUCUUAACAUUUCUCUCAUCUGCUUUGUCUCCUUGUCCACACAACAGAGGAUUGAGCAUCA

The target of this test is T1, UNK ZnF1-3. Nature of the test: nsRBNS (natural sequence RNA bind-n-seq); RBNS binding buffer (assumed for nsRBNS): 25 mM Tris pH 7.5, 150 mM KCl, 3 mM MgCl2, 0.01% Triton X-100, 500 ug/ml BSA, 20 U/ml SUPERase-In, 4 C; UNK is unkempt and MSI1 is Musashi-1; names of the RNAs are library labels; protein concentration not given here; high values mean tight binding.
B1 displayed a binding signal of 0.735 enrichment R.

Consider B2, for which the binding signal came out at 1.23 enrichment R.

B3 came in with a binding signal of 0.932 enrichment R.

Molecule B4 yielded a binding signal of 1.13 enrichment R.

B5 had a binding signal of 1.83 enrichment R.

As to B6, the binding signal amounted to 0.309 enrichment R.
